From ChEMBL document CHEMBL4888484, “Replenishing the malaria drug discovery pipeline: Screening and hit evaluation of the MMV Hit Generation Library 1 (HGL1) against asexual blood stage Plasmodium falciparum ,using a nano luciferase reporter read-out” (2022) come the findings set out here.

Screen size: about 150,000 compounds; about 540 (0.36%) showed an effect of 50% or more. The list shows a part of the results.

The assay deals with Plasmodium falciparum. Description: Primary screen in NF54 nanoGlo assay, in single point, at 2uM, 72h; a lower Z score goes with more inhibition. The assay is classed as functional, Erythrocyte. The note with it: timepoint 72 hour.
As for `Cn1ccc(NC(=O)c2ccc(=O)[nH]n2)n1`, the % Inhibition (as a rule, the relative decrease from the control value, in per cent) was -7% and the Z score was determined as 1.49.
The corresponding values for `Cc1ccn2c(NC(=O)[C@@H]3CC=CCC3)nnc2n1` are 0% and 0.09.
For the molecule `CC[C@H](C)CS(=O)(=O)NC(=O)c1cc(C(C)(C)C)on1`, the “% Inhibition” value is recorded as 4% and the Z score is -0.47.
The corresponding values for `Cc1sc2ncnc(N[C@H]3CCN(C(=O)c4ccccn4)C[C@@H]3O)c2c1C` are -4% and 0.55.
Regarding `CCc1nccn1CCC(=O)NCC1CCN(C(=O)c2nccnc2O)CC1`, the “% Inhibition” value was 5% and the Z score is on record as -0.63.
Taken in the same sequence, the figures for `CN(C)c1nc(N2CCN(C3CCCCC3)CC2)nc2c1CN(C(=O)c1cccc(F)c1)CC2` were 23% and -2.58.
The corresponding values for `Cc1c(C(=O)NCCN2CCCC(C)(C)C2)nnn1-c1ccc(F)c(F)c1` are -11% and 1.16.
Taken in the same sequence, the figures for `CCN(CCOc1ccccc1F)C(=O)c1ccc2[nH]nnc2c1` were -3% and 0.56.
`Cc1cccc(NC(=O)NC[C@H](O)C2CCCCC2)n1`: the “% Inhibition” value worked out at 5% and the Z score is listed as -0.58.
Taken in the same sequence, the figures for `C[C@H]1CN(Cc2cccc(O)c2Cl)CC(=O)N1C` were -5% and 0.89.
On to `Cn1cc(CN2CCN3C(=O)N(c4ccccc4)C[C@H]3C2)cn1`, for which the “% Inhibition” value is recorded as -7% and the Z score amounted to 1.05.
Taken in the same sequence, the figures for `c1ccc(Cc2cn3c(-c4ccccc4)cnc3s2)cc1` were -8% and 1.49.
On to `CC(C)(C)c1ccc([C@@H](CC(=O)NCCN2CCOCC2)c2c[nH]c3ccccc23)cc1`, for which the “% Inhibition” value is listed as -4% and the Z score was found to be 0.47.
Take `CCO[C@@H](C)C(=O)N1CCC2(CCC(=O)N(CCc3c[nH]cn3)C2)CC1`: the “% Inhibition” value was -1% and the Z score is on record as 0.21.
Turning to `C[C@@H](CCN1CCCC1=O)NC(=O)Cc1ccccc1O`, the “% Inhibition” value is recorded as -4% and the Z score is on record as 0.74.
As for `COC1CCC2OCCN(C(=O)c3occc3C)C2C1` (stereo unspecified), the “% Inhibition” value is 9% and the Z score is reported as -0.86.
The corresponding values for `Cc1cccc(CN2C[C@@H](F)[C@@H](OCc3nc4ncccc4[nH]3)C2)n1` are -11% and 1.44.
Regarding `CC(C)c1noc(C2CCN(C(=O)C(=O)c3cccn3C)CC2)n1`, the “% Inhibition” value is reported as 7% and the Z score is recorded as -0.69.
The corresponding values for `COc1nccnc1NC1CCN(C(=O)c2ccc3cc[nH]c3c2)CC1` are -9% and 1.14.
The corresponding values for `O=C(Nc1cc(N2CCCS2(=O)=O)ccc1O)c1cccc(Oc2cccc(C(F)(F)F)c2)c1` are 99% and -18.11.
On to `Cc1nnsc1C(=O)Nc1nnc(COc2ccccc2)o1`, for which the “% Inhibition” value is given as 8% and the Z score is recorded as -1.14.
The corresponding values for `Cc1ccc(NC(=O)CCc2nc(-c3nn(-c4ccc(F)cc4)c(=O)n(C)c3=O)no2)cc1F` are -4% and 0.79.
Taken in the same sequence, the figures for `COc1cc2c(cc1-c1cn(Cc3cncn3C3CC3)nn1)CCC2` were 5% and -0.75.
